{
  "source": "PubChem BioAssay AID1345083",
  "about": "(National Center for Advancing Translational Sciences (NCATS), 2018)",
  "note": "Values joined by “and” are separate entries in the source; they are usually repeats but may differ in a detail not shown here. Equal values may be shown once. In all, about 94,000 compounds went through this assay and about 6,200 (6.6%) were called active. This list was built around the results that the source calls inconclusive (neither active nor inactive); the mix of calls is not that of the screen. The call rests on the fitted dose curve; in most records, active means well fitted inhibition curve with a large enough effect; inconclusive means small, poorly fitted or top-dose-only effect; inactive means flat fitted curve, though single readings scatter. Where the call is inconclusive, the potency comes from a doubtful curve fit. On the % scale 0 is the no-effect control and ±100 the full control effect; potency means the concentration at half of the fitted maximal effect; tags describe the fitted curve by direction and shape.",
  "data": [
    {"assay": "Cytotoxic Profiling in HEK 293 Cell Line of Diverse Libraries Using Quantitative High-Throughput Screening; further: nearly all actives have a fitted effect of over 60% in size", "conditions": "HEK 293 viability, ATP luminescence (CellTiter-Glo), 48-72 h; activity change, negative = cytotoxicity: at 115 µM (top of the series) unless noted; series mostly up to 115 µM", "outline": "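qHTS cytotoxicity; HEK 293, 250 cells/well; compound pinned; 48 or 72 hr, 37 degree Celsius, 5% CO2, 95% humidity; CellTiter-Glo, 10 min RT; luminescence (ATP).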", "values": [
      {"smiles": "Cn1cnc(S(=O)(=O)N2CCC3(CC2)NCCc2c3[nH]c3ccccc23)c1", "Potency": "inconclusive: 22.4 µM [inhibitor, full curve, poor fit]"},
      {"smiles": "COCCCNC(=O)c1cnc2c(c1)N(C(=O)Cc1ccc(C(C)C)cc1)CCC2", "Potency": "active: 70.8 µM"},
      {"smiles": "CCCNC(=O)c1ccc(S(=O)(=O)NCC2(O)CCCNC2)cc1", "note": "(centres undefined)", "activity change, negative = cytotoxicity": "inactive: -2.21%"},
      {"smiles": "COc1ccc(NC(=O)c2cc3c(n2C)CCN(Cc2ccc(F)cc2)C3)cc1", "Potency": "inconclusive: 56.2 µM [inhibitor, partial curve, poor fit]"},
      {"smiles": "Cc1ccccc1S(=O)(=O)N1CCC(c2noc(-c3cccnc3)n2)C1", "note": "(centres undefined)", "Potency": "inconclusive: 50.1 µM [inhibitor, partial curve, poor fit]"},
      {"smiles": "Cc1cccc(CN2CCc3ncc(C(=O)NCCC(C)C)n3CC2)c1", "Potency": "active: 39.8 µM"},
      {"smiles": "CC1(C)[C@H]2CC[C@@H](CN[S+](=O)([O-])c3ccccc3)[C@@H]1C2", "Potency": "active: 79.4 µM"},
      {"smiles": "CCOC1CCOC2(CCN(C(=O)NCc3ccc(OC)cc3)CC2)C1", "note": "(centres undefined)", "activity change, negative = cytotoxicity": "inactive: 0.491%"},
      {"smiles": "O=C1N(CCCCOc2ccccc2)c2ccccc2NC12CCNCC2", "Potency": "active: 20 µM"},
      {"smiles": "CC1=NOC2(CCN(C(=O)c3ccc(C(F)(F)F)cc3)CC2)C1", "Potency": "inconclusive: 44.7 µM [inhibitor, partial curve, poor fit]"},
      {"smiles": "CN(Cc1cccc(-n2cccn2)c1)C(=O)C1COc2ccccc2C1", "note": "(centres undefined)", "Potency": "inconclusive: 56.2 µM [inhibitor, partial curve, poor fit]"},
      {"smiles": "COCCN1CCCCCC(O)c2cc(C(=O)NCCCN3CCCC3=O)ccc21", "note": "(centres undefined)", "activity change, negative = cytotoxicity": "inactive: -4.16%"},
      {"smiles": "COc1cccc(CNC(=O)c2ccc3nnc(CC4CC4)n3c2)c1", "activity change, negative = cytotoxicity": "inactive: -12.9%"},
      {"smiles": "O=C(C1CCCN1C(=O)c1ccccc1)N1CCC(c2nc3ncccc3[nH]2)CC1", "note": "(centres undefined)", "activity change, negative = cytotoxicity": "inactive: -11.2%"},
      {"smiles": "N#Cc1ccc(C(=O)N2CCN(c3cc(-c4cccs4)[nH]n3)CC2)cc1", "Potency": "inconclusive: 50.1 µM [inhibitor, partial curve, poor fit]"},
      {"smiles": "C[S+](=O)([O-])N1Cc2ccccc2CC2(CCN(CC3CCCC3)C2)C1", "note": "(centres undefined)", "activity change, negative = cytotoxicity": "inactive: -14.4%"},
      {"smiles": "COc1ccc(C(=O)NC2CCCN(c3ccc4nnc(-c5ccccc5)n4n3)C2)cc1", "note": "(centres undefined)", "Potency": "active: 22.4 µM"},
      {"smiles": "COc1ccc(-c2ccc(C(=O)NCc3ccc(C(F)(F)F)cc3)cc2)nn1", "Potency": "inactive"},
      {"smiles": "COc1ccccc1N1CCN(C(=O)Nc2n[nH]c(Cc3ccccc3)n2)CC1", "Potency": "active: 25.1 µM"},
      {"smiles": "O=C(CCC[C@H]1NC[C@@H]2C[C@H]1CN(Cc1ccccc1)C2)NCc1cc(F)cc(F)c1", "Potency": "inconclusive: 89.1 µM [inhibitor, single point]"},
      {"smiles": "Cc1ccc(Nc2ccnc(N3CCCC3C(=O)NCc3cccc(Cl)c3)n2)cc1", "note": "(centres undefined)", "Potency": "inconclusive: 39.8 µM [inhibitor, partial curve, poor fit]"},
      {"smiles": "Cc1ccc(C(=O)NC2CCN(c3ccc(F)cc3)C2=O)cc1C", "note": "(centres undefined)", "activity change, negative = cytotoxicity": "inactive: -20.2%"},
      {"smiles": "O=C(NCc1ccccc1F)C1CCc2nnc(C3CC3)n21", "note": "(centres undefined)", "activity change, negative = cytotoxicity": "inactive: -17.3% [at 172 µM]"},
      {"smiles": "COc1ccc(CN2CCC[C@H]2c2nc(-c3ccc(-n4ccnc4)nc3)no2)c(OC)c1OC", "Potency": "inconclusive: 79.4 µM [inhibitor, single point]"},
      {"smiles": "COc1cc(CNC(=O)C23CCC=C2N(C2CCCC2)C(=O)CC3)cc(OC)c1", "note": "(centres undefined)", "activity change, negative = cytotoxicity": "inactive: -25.6%"},
      {"smiles": "CNC(=O)[C@H]1C[C@H](Oc2ccccc2)CN1C(=O)c1ccccc1", "Potency": "inconclusive: 79.4 µM [inhibitor, partial curve, poor fit]"},
      {"smiles": "Cc1ccc(C(=O)N2CCc3nc(-c4ccc(Cl)cc4)nc(-c4ccccc4)c3C2)cc1", "Potency": "inconclusive: 31.6 µM [inhibitor, full curve] and active: 50.1 µM"},
      {"smiles": "Cc1ccc(NC(=O)Cn2ccn3nc4c(c3c2=O)CC(C)CC4)cc1C", "note": "(centres undefined)", "Potency": "inconclusive: 50.1 µM [inhibitor, partial curve, poor fit]"},
      {"smiles": "CC(C)(C)c1ccc(-c2cc(C[C@H]3CNCC[C@H]3CC(=O)N3CCC(n4c(=O)[nH]c5ccccc54)CC3)no2)cc1", "Potency": "active: 22.4 µM"},
      {"smiles": "Cc1ccsc1CN1CCCC(c2nc(CCOCC3CCOCC3)no2)C1", "note": "(centres undefined)", "Potency": "inconclusive: 79.4 µM [inhibitor, partial curve]"},
      {"smiles": "CN(C)CC1(O)CCCN(c2ncccc2C(N)=O)CC1", "note": "(centres undefined)", "activity change, negative = cytotoxicity": "inactive: -4.25%"},
      {"smiles": "O=C(CC(c1ccc(Cl)cc1)c1c[nH]c2ccc([N+](=O)[O-])cc12)N1CCOCC1", "note": "(centres undefined)", "Potency": "active: 39.8 µM"},
      {"smiles": "OC[C@@H]1CNC[C@H]1C1CCN(Cc2cccc(Cl)c2F)CC1", "Potency": "inconclusive: 79.4 µM [inhibitor, single point]"},
      {"smiles": "CC(C)NC(=O)N1CCC(CCOc2ccccc2F)C1", "note": "(centres undefined)", "Potency": "inconclusive: 44.7 µM [inhibitor, partial curve, poor fit]"},
      {"smiles": "CCOC(=O)c1ccc(NC(=O)N2Cc3[nH]cnc3C[C@H]2c2nc(-c3cccc([N+](=O)[O-])c3)no2)cc1", "Potency": "inconclusive: 39.8 µM [inhibitor, full curve, poor fit]"},
      {"smiles": "O=C(CC1CCCC1)N1CCCCCC1c1nc(-c2cccnc2)no1", "note": "(centres undefined)", "Potency": "inconclusive: 89.1 µM [inhibitor, single point]"},
      {"smiles": "Cc1sc2ccn(Cc3ccc(F)cc3)c(=O)c2c1C(=O)NC1CCCC1", "Potency": "inconclusive: 100 µM [inhibitor, single point]"},
      {"smiles": "O=C(NC1CCN(c2ccnc3ccnn23)C1)c1ccccc1Cl", "note": "(centres undefined)", "Potency": "inconclusive: 112 µM [inhibitor, partial curve, poor fit]"},
      {"smiles": "Cc1nc(-c2ccc(F)cc2)n(CC(=O)Nc2cccc(C(F)(F)F)c2)c(=O)c1CCO", "Potency": "active: 20 µM"},
      {"smiles": "Cc1ccccc1-c1cnc2[nH]cc(CC(=O)NC(C)C)c2c1", "Potency": "inconclusive: 89.1 µM [inhibitor, partial curve, poor fit]"},
      {"smiles": "O=C1NCCCCCN(Cc2cn[nH]c2-c2ccc(F)cc2)[C@H]2CCC[C@@H]12", "Potency": "inconclusive: 79.4 µM [inhibitor, single point]"},
      {"smiles": "CN1Cc2cccn2CC1CNC(=O)NC1CCCCC1", "note": "(centres undefined)", "activity change, negative = cytotoxicity": "inactive: 1.59%"},
      {"smiles": "CCC(=O)Nc1cc(-c2ccncc2)nn1-c1ccccc1", "activity change, negative = cytotoxicity": "inactive: -8.3% [at 172 µM]"},
      {"smiles": "Cc1cccc(C)c1-c1nc(C(=O)NC2CC2)n2ccccc12", "Potency": "inconclusive: 79.4 µM [inhibitor, partial curve, poor fit]"}
    ]}
  ]
}
